The source of these data is ChEMBL document CHEMBL4888484, “Replenishing the malaria drug discovery pipeline: Screening and hit evaluation of the MMV Hit Generation Library 1 (HGL1) against asexual blood stage Plasmodium falciparum ,using a nano luciferase reporter read-out” (2022).

Each structure is given as a SMILES string. Among all 150,000 compounds or so, about 540 (0.36%) showed an effect of 50% or more. Some of the results follow.

The test concerns Plasmodium falciparum. The test can be described thus: Primary screen in NF54 nanoGlo assay, in single point, at 2uM, 72h; a lower Z score goes with more inhibition. The note with it: timepoint 72 hour. In kind it is functional, Erythrocyte.
For `Cc1cc(Cl)ccc1CN(C)CCO`, the “% Inhibition” value is recorded as 9% and the Z score is listed as -0.77.

For `C[C@@H](C(=O)N1CCC(c2nc3ccccc3s2)CC1)c1cncnc1`, the “% Inhibition” value is listed as -12% and the Z score is reported as 2.25.

For `CN(Cc1c[nH]nc1-c1ccc(-c2ccccc2)cc1)C[C@H]1COCCO1`, the “% Inhibition” value was -3% and the Z score was 0.56.

As for `COC(=O)c1cc(C2CC2)nc2c1c(=O)n(CC(=O)Nc1cc(C)ccc1C)c(=O)n2C`, the “% Inhibition” value is given as 17% and the Z score is on record as -2.37.

Consider `O=C([C@H]1C[C@@H]1c1ccc(OC(F)F)cc1)N1CCn2ncnc2C1`, for which the “% Inhibition” value is -7% and the Z score is on record as 1.27.

For `Cn1c(=O)[nH]c2ccc(C(=O)N3CCN4C(=O)NC[C@H]4C3)cc21`, the “% Inhibition” value was -6% and the Z score is given as 1.06.

`O=C(c1ccnc(C2CC2)n1)N1CCOCc2ccccc21`: the “% Inhibition” value is -8% and the Z score stood at 1.62.

For `O=C(O)c1ccc(CC(=O)N2CCO[C@H](c3cccs3)C2)cc1`, the “% Inhibition” value was 14% and the Z score is -1.66.

On to `Cc1ccc(CNC(=O)N2CC[C@H](CC(=O)N(C)Cc3ccccc3)C2)cc1`, for which the “% Inhibition” value came to 35% and the Z score is on record as -5.02.

As for `Cn1nccc1C(=O)Nc1nnc(C2CC2)s1`, the “% Inhibition” value was -10% and the Z score was 2.07.

As to `Cc1cccc(NC(=O)c2cc(C)nc3c2c(C)nn3-c2ccc(F)cc2)c1`, the “% Inhibition” value stood at 37% and the Z score is on record as -4.14.

In the case of `O=C1N(c2ccc(F)cc2)c2ncccc2S(=O)(=O)N1Cc1ccccc1`, the “% Inhibition” value is on record as -9% and the Z score worked out at 0.89.

For `CN(C)C(=O)[C@@H](c1ccccc1)N1CCc2ccc(S(C)(=O)=O)cc2CC1`, the “% Inhibition” value is -4% and the Z score turned out to be 0.44.

Regarding `CC1CN(S(=O)(=O)c2cccc3nsnc23)CC(C)O1` (centres undefined), the “% Inhibition” value is 9% and the Z score is given as -1.43.

Turning to `Cc1c([C@@H](C)NC(=O)N[C@H]2CCO[C@@H]2c2cnn(C(C)C)c2)oc2ccccc12`, the “% Inhibition” value is recorded as -3% and the Z score came to 0.48.

Take `Cc1nc[nH]c1-c1c(-c2ccccc2)ncn1Cc1cc2cc(F)ccc2[nH]1`: the “% Inhibition” value was -5% and the Z score was found to be 0.5.

For `CC(C)C[C@@H](CNC(=O)c1ccc(Cl)cn1)C(=O)O`, the “% Inhibition” value turned out to be 1% and the Z score is given as -0.14.

Consider `CN(Cc1ccccc1)[C@H]1CCCN(C(=O)CCc2ccc3c(c2)OCO3)C1`, for which the “% Inhibition” value is on record as -14% and the Z score is recorded as 1.62.

Consider `Cc1ccc(C)c(NS(=O)(=O)c2ccc(OCC(=O)N3CCCC3)cc2)c1`, for which the “% Inhibition” value is -12% and the Z score was 1.66.

On to `O=C(c1ccc(F)cn1)N1CCCCCO1`, for which the “% Inhibition” value is -11% and the Z score turned out to be 2.25.

As to `CC(=O)N1CCN(C(=O)C2C(c3ccc(NC(=O)c4cccs4)cc3)OC(=O)N2Cc2cccc(C)c2)CC1` (centres undefined), the “% Inhibition” value is reported as -13% and the Z score is 1.62.

Turning to `Cc1nc(C(=O)NCc2cnn3c2CCCC3)cs1`, the “% Inhibition” value was 2% and the Z score is given as -0.25.

With `Cc1cc(C)c(CN(Cc2ccccn2)C2CC2)cc1CN1CCN(C)CC1`, the “% Inhibition” value is -16% and the Z score is 1.56.

For the molecule `CC(C)CC1(CNC(=O)c2ccc(C#N)nc2)CCC1`, the “% Inhibition” value was determined as 7% and the Z score is reported as -0.97.

Take `CCc1nc2cc(N3CCC[C@H](C(=O)NC4CC4)C3)cnc2nc1CC`: the “% Inhibition” value worked out at 2% and the Z score is listed as -0.31.

For `COc1ccc([C@H](CNC(=O)c2cccc(S(=O)(=O)N3CCOCC3)c2)N2CCCCC2)cc1`, the “% Inhibition” value is listed as 2% and the Z score was -0.35.

Turning to `Cc1ccc(C#N)c(N2CCC[C@H]2c2ccco2)n1`, the “% Inhibition” value stood at 4% and the Z score was -0.5.

`O=C(NC1CC1)C1CN(C(=O)COc2ccccc2F)C1`: the “% Inhibition” value is on record as -12% and the Z score came out at 1.8.

`OC[C@H]1CNCCN1CCc1ccc2c(c1)CCO2`: the “% Inhibition” value is recorded as -11% and the Z score is listed as 1.55.

Regarding `Cc1cc(C)n(CC2CCN(C(=O)CCS(=O)(=O)c3ccccc3)CC2)n1`, the “% Inhibition” value is reported as -8% and the Z score is 1.12.

In the case of `Cc1ccc2oc(N(C)C[C@H](C)C(=O)O)nc2c1`, the “% Inhibition” value turned out to be 7% and the Z score is on record as -1.36.

For `OCc1ccc(CN[C@H]2[C@H](O)[C@@H](N3CCN(c4ccccc4)CC3)[C@@H]3OC[C@H]2O3)o1`, the “% Inhibition” value was 12% and the Z score is reported as -1.38.

Take `COCCn1c(N)c(N(CCCc2ccccc2)Cc2ccccc2)c(=O)[nH]c1=O`: the “% Inhibition” value was -7% and the Z score is recorded as 0.91.

Take `CCOCCCC(=O)Nc1ncc(C(C)C)s1`: the “% Inhibition” value was -3% and the Z score turned out to be 0.61.

Turning to `COc1cc2ccncc2cc1OC(=O)c1cncc(C)c1`, the “% Inhibition” value is -9% and the Z score was determined as 1.28.

For the molecule `C[C@@]1(C(=O)Nc2cccc3ncccc23)CCCCO1`, the “% Inhibition” value is on record as -3% and the Z score was 0.49.

As to `COc1nc(C)cc(N2CC(O)CC2c2cc(F)ccc2F)n1` (centres undefined), the “% Inhibition” value is recorded as -4% and the Z score came to 0.79.

On to `CCCC1(C2CCN(C(=O)c3cc4ccccc4o3)CC2)NC(=O)N(CCC2CCCN2C)C1=O` (centres undefined), for which the “% Inhibition” value amounted to 14% and the Z score is -2.01.

`Cc1cccc(CN2CCOc3c(O)cc(-c4ccc(Cl)cn4)cc3C2)n1`: the “% Inhibition” value was -16% and the Z score was found to be 2.16.

Turning to `O=C(NC[C@H]1CN(Cc2ccc(Cl)c(F)c2)CC12CCOCC2)N1CCCC1`, the “% Inhibition” value is on record as -4% and the Z score was 0.81.

With `O=C(Nc1ccnn1Cc1ccc(Cl)c(F)c1)c1ccc(C(=O)O)nc1`, the “% Inhibition” value was -1% and the Z score is 0.17.

On to `C[C@H]1CCc2nn3ccn(CC(=O)Nc4ccc(F)c(Cl)c4)c(=O)c3c2C1`, for which the “% Inhibition” value was -18% and the Z score is 1.64.
